Test results taken from article PMC11995724, “Antibiotic target discovery by integrated phenotypic and activity-based profiling of electrophilic fragments” (Cell chemical biology, 2025).
In all, about 3,200 compounds went through this assay and about 75 (2%) showed an effect of 50% or more. This is one part of the list.

test system: T1, S. aureus MSSA476; set-up: species or system S. aureus MSSA476 (TSB) or V. cholerae SAD30 (LB); 384-well bacterial growth screen at 25 uM, OD600 relative to DMSO control; details: relative growth, OD600, TSB; 25 µM; inhibitor
T1 construct: MSSA476

Going from `CCOC(=O)C(C#N)=Cc1ccc(N2C(=O)C=CC2=O)cc1` [10-N11, ethyl 2-cyano-3-[4-(2,5-dioxo-2,5-dihydro-1H-pyrrol-1-yl)phenyl]prop-2-enoate] to `Cc1cccc(N2C(=O)C=CC2=O)c1C` [10-H05, 1-(2,3-dimethylphenyl)-2,5-dihydro-1H-pyrrole-2,5-dione], the “% of control remaining” value falls from 133.125% to 119.375%.

Compared with `C=CC(=O)N1CCC(C(=O)NCC(O)c2cccc(Cl)c2)CC1` (stereo not drawn) [3-M06, N-[2-(3-chlorophenyl)-2-hydroxyethyl]-1-(prop-2-enoyl)piperidine-4-carboxamide], `C=CC(=O)N1CCC(C(=O)Nc2cnn(COC)c2)CC1` [2-H10, N-[1-(methoxymethyl)-1H-pyrazol-4-yl]-1-(prop-2-enoyl)piperidine-4-carboxamide] is lower in “% of control remaining” value: 103.091% for the first, 87.7285% for the second.

Compared with `O=C(CCl)N1CCC(Cc2nc(-c3ccc(F)cn3)no2)CC1` [5-K18, 2-chloro-1-(4-{[3-(5-fluoropyridin-2-yl)-1,2,4-oxadiazol-5-yl]methyl}piperidin-1-yl)ethan-1-one], `N#Cc1nc(-c2ccco2)oc1N1CCN(C(=O)CCl)CC1` [4-B22, 5-[4-(2-chloroacetyl)piperazin-1-yl]-2-(furan-2-yl)-1,3-oxazole-4-carbonitrile] is higher in “% of control remaining” value: 104.189% for the first, 109.385% for the second.

Compared with `CC(=O)N(c1ccc(C)c(C)c1)c1nc(C=C(C#N)C(N)=O)cs1` [8-M16, 2-cyano-3-{2-[N-(3,4-dimethylphenyl)acetamido]-1,3-thiazol-4-yl}prop-2-enamide], `CC(=O)N(c1ccccc1)c1nc(C=C(C#N)C(=O)NC2CC2)cs1` [9-A12, 2-cyano-N-cyclopropyl-3-[2-(N-phenylacetamido)-1,3-thiazol-4-yl]prop-2-enamide] is lower in “% of control remaining” value: 107.552% for the first, 100.075% for the second.

First: C=CC(=O)NC(C)Cn1cncn1 (stereo not drawn) [3-C11, N-[1-(1H-1,2,4-triazol-1-yl)propan-2-yl]prop-2-enamide]
Second: C=CC(=O)NCc1cccc(OC)n1 [1-H22, N-[(6-methoxypyridin-2-yl)methyl]prop-2-enamide]
The “% of control remaining” value of the first is lower: 100.305% for the first, 112.527% for the second.

Compared with `CC(Cl)C(=O)NCCc1c[nH]c2ncccc12` (stereo not drawn) [7-C12, 2-chloro-N-(2-{1H-pyrrolo[2,3-b]pyridin-3-yl}ethyl)propanamide], `CC(Cl)C(=O)Nc1cc(Cl)cc(Cl)c1` (stereo not drawn) [4-D17, 2-chloro-N-(3,5-dichlorophenyl)propanamide] is higher in “% of control remaining” value: 105.808% for the first, 118.914% for the second.

Compared with `C=CC(=O)Nc1onc(C2CCCCC2)c1CC(C)C` [1-P12, N-[3-cyclohexyl-4-(2-methylpropyl)-1,2-oxazol-5-yl]prop-2-enamide], `CC(NC(=O)CCl)c1nc2c(s1)CCCCC2` (stereo not drawn) [7-M22, 2-chloro-N-(1-{4H,5H,6H,7H,8H-cyclohepta[d][1,3]thiazol-2-yl}ethyl)acetamide] is higher in “% of control remaining” value: 92.1319% for the first, 93.8776% for the second.

First: C=CC(=O)N1CCOCC1c1cc(F)cc(F)c1 (stereo not drawn) [2-O16, 1-[3-(3,5-difluorophenyl)morpholin-4-yl]prop-2-en-1-one]
Second: C=CC(=O)Nc1cccc(N2CCOCC2)c1 [1-K04, N-[3-(morpholin-4-yl)phenyl]prop-2-enamide]
The “% of control remaining” value of the first is higher: 111.401% for the first, 107.956% for the second.

Going from `COc1ccccc1NC(=O)C(C#N)=Cc1ccc(C)s1` [8-B15, 2-cyano-N-(2-methoxyphenyl)-3-(5-methylthiophen-2-yl)prop-2-enamide] to `COc1cccc(NC(=O)C(C#N)=Cc2ccc(C)cc2C)c1` [8-C16, 2-cyano-3-(2,4-dimethylphenyl)-N-(3-methoxyphenyl)prop-2-enamide], the “% of control remaining” value rises from 118.838% to 120.166%.

First: N#Cc1cccc(NC2CCN(C(=O)CCl)C2)c1 (stereo not drawn) [5-I22, 3-{[1-(2-chloroacetyl)pyrrolidin-3-yl]amino}benzonitrile]
Second: N#Cc1cccc2c1CC[C@H]2NC(=O)CCl [7-D06, 2-chloro-N-[(1R)-4-cyano-2,3-dihydro-1H-inden-1-yl]acetamide]
The “% of control remaining” value of the first is higher: 95.4463% for the first, 91.9937% for the second.

First: C=CC(=O)NCC1SCCS1 [1-C03, N-[(1,3-dithiolan-2-yl)methyl]prop-2-enamide]
Second: C=CC(=O)NC[C@H]1CCCN1S(C)(=O)=O [1-H07, N-{[(2R)-1-methanesulfonylpyrrolidin-2-yl]methyl}prop-2-enamide]
The “% of control remaining” value of the first is lower: 101.978% for the first, 112.176% for the second.

Going from `O=C(CCl)NC(c1ccccc1)c1nccs1` (stereo not drawn) [5-M13, 2-chloro-N-[phenyl(1,3-thiazol-2-yl)methyl]acetamide] to `O=C(CCl)Nc1ccccc1S(=O)(=O)C(F)F` [4-B18, 2-chloro-N-(2-difluoromethanesulfonylphenyl)acetamide], the “% of control remaining” value rises from 105.282% to 119.676%.

Compared with `CC(Cl)C(=O)N1Cc2ccccc2N(C)C[C@@H]1C` (stereo partly drawn) [5-F15, 2-chloro-1-[(3S)-1,3-dimethyl-2,3,4,5-tetrahydro-1H-1,4-benzodiazepin-4-yl]propan-1-one], `CC(C)CC(=O)Nc1ccc(C(=O)CCl)cc1` [10-N06, N-[4-(2-chloroacetyl)phenyl]-3-methylbutanamide] is lower in “% of control remaining” value: 110.018% for the first, 1.25% for the second.

Going from `C=CC(=O)N(Cc1ccc(Cl)cc1Cl)CC1CCC(O)C1` (stereo not drawn) [1-B04, N-[(2,4-dichlorophenyl)methyl]-N-[(3-hydroxycyclopentyl)methyl]prop-2-enamide] to `C=CC(=O)N1CCC(C(=O)NC[C@H]2C[C@@H](O)C2)(c2ccccc2)CC1` [3-O04, 4-phenyl-1-(prop-2-enoyl)-N-{[(1s,3s)-3-hydroxycyclobutyl]methyl}piperidine-4-carboxamide], the “% of control remaining” value rises from 92.8352% to 96.8219%.

Compared with `N#CC(=Cc1ccc(-c2ccc(Cl)cc2)o1)C(=O)Nc1ccccc1` [8-O03, 3-[5-(4-chlorophenyl)furan-2-yl]-2-cyano-N-phenylprop-2-enamide], `N#CC(=Cc1ccc2c(c1)OCO2)C(=O)NCc1ccccc1` [8-A09, 3-(1,3-dioxaindan-5-yl)-N-benzyl-2-cyanoprop-2-enamide] is lower in “% of control remaining” value: 118.174% for the first, 113.527% for the second.

Compared with `Cc1ccc(SCCNC(=O)CCl)cc1` [4-K21, 2-chloro-N-{2-[(4-methylphenyl)sulfanyl]ethyl}acetamide], `CCCc1ccc(C(=O)CCl)cc1` [10-C04, 2-chloro-1-(4-propylphenyl)ethan-1-one] is lower in “% of control remaining” value: 162.744% for the first, 134.375% for the second.

Going from `C=CC(=O)N1CCC(C(=O)N(C)Cc2ccc([S+](C)[O-])cc2)CC1` (stereo not drawn) [2-D06, N-[(4-methanesulfinylphenyl)methyl]-N-methyl-1-(prop-2-enoyl)piperidine-4-carboxamide] to `C=CC(=O)N1CCC(Cc2nccs2)C1` (stereo not drawn) [3-O16, 1-{3-[(1,3-thiazol-2-yl)methyl]pyrrolidin-1-yl}prop-2-en-1-one], the “% of control remaining” value rises from 73.4552% to 74.532%.

Compared with `Cc1cc(CNC(=O)C(C#N)=Cc2ccco2)ccc1N(C)C` [9-N09, 2-cyano-N-{[4-(dimethylamino)-3-methylphenyl]methyl}-3-(furan-2-yl)prop-2-enamide], `Cc1cc(C=C(C#N)C(=O)NCc2ccco2)cc(C)c1O` [8-J16, 2-cyano-N-[(furan-2-yl)methyl]-3-(4-hydroxy-3,5-dimethylphenyl)prop-2-enamide] is higher in “% of control remaining” value: 94.9813% for the first, 103.237% for the second.

First: C=CCNC(=O)C(C#N)=Cc1cccc2ccccc12 [9-L10, 2-cyano-3-(naphthalen-1-yl)-N-(prop-2-en-1-yl)prop-2-enamide]
Second: N#CC(=Cc1ccsc1)C(=O)Nc1nccs1 [9-C17, 2-cyano-N-(1,3-thiazol-2-yl)-3-(thiophen-3-yl)prop-2-enamide]
The “% of control remaining” value of the first is lower: 84.794% for the first, 97.0787% for the second.

Compared with `CN(C)C(=O)c1csc(C(=O)CCl)c1` [10-I07, 5-(2-chloroacetyl)-N,N-dimethylthiophene-3-carboxamide], `Cc1cc(C(=O)CCl)c(C)n1C1CCS(=O)(=O)C1` (stereo not drawn) [10-B12, 3-[3-(2-chloroacetyl)-2,5-dimethyl-1H-pyrrol-1-yl]-1lambda6-thiolane-1,1-dione] is higher in “% of control remaining” value: 122.813% for the first, 128.438% for the second.

First: CC1CCCCC1OCCNC(=O)CCl (stereo not drawn) [6-O06, 2-chloro-N-{2-[(2-methylcyclohexyl)oxy]ethyl}acetamide]
Second: COCCn1c(N)c(C(=O)CCl)c(=O)[nH]c1=O [10-N12, 6-amino-5-(2-chloroacetyl)-1-(2-methoxyethyl)-1,2,3,4-tetrahydropyrimidine-2,4-dione]
The “% of control remaining” value of the first is lower: 89.4634% for the first, 101.563% for the second.

Compared with `C=CC(=O)NC1(C(N)=O)CCCC1C` (stereo not drawn) [3-B09, 2-methyl-1-(prop-2-enamido)cyclopentane-1-carboxamide], `C=CC(=O)NCc1n[nH]c(=O)n1C1CC1` [3-N08, N-[(4-cyclopropyl-5-oxo-4,5-dihydro-1H-1,2,4-triazol-3-yl)methyl]prop-2-enamide] is lower in “% of control remaining” value: 127.122% for the first, 91.946% for the second.

For `CCn1cc(CN(C)C(=O)C(C)Cl)nn1` (stereo not drawn) [6-L22, 2-chloro-N-[(1-ethyl-1H-1,2,3-triazol-4-yl)methyl]-N-methylpropanamide], the “% of control remaining” value was 92.878%.
